# Among all 310,000 compounds or so, about 14,000 (4.5%) showed an effect of 50% or more. The effect is printed as a negative number. The list shows a part of the results.
# Target: human ether-à-go-go-related gene (hERG) potassium channel (human, UniProt Q12809)
# Assay: primary screen, population patch clamp on CHO cells stably expressing hERG
# 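Also: peak tail current of the secondary pulse compared with the same well before compound.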
# Chain of human ether-à-go-go-related gene (hERG) potassium channel (Q12809 whole entry, looked up): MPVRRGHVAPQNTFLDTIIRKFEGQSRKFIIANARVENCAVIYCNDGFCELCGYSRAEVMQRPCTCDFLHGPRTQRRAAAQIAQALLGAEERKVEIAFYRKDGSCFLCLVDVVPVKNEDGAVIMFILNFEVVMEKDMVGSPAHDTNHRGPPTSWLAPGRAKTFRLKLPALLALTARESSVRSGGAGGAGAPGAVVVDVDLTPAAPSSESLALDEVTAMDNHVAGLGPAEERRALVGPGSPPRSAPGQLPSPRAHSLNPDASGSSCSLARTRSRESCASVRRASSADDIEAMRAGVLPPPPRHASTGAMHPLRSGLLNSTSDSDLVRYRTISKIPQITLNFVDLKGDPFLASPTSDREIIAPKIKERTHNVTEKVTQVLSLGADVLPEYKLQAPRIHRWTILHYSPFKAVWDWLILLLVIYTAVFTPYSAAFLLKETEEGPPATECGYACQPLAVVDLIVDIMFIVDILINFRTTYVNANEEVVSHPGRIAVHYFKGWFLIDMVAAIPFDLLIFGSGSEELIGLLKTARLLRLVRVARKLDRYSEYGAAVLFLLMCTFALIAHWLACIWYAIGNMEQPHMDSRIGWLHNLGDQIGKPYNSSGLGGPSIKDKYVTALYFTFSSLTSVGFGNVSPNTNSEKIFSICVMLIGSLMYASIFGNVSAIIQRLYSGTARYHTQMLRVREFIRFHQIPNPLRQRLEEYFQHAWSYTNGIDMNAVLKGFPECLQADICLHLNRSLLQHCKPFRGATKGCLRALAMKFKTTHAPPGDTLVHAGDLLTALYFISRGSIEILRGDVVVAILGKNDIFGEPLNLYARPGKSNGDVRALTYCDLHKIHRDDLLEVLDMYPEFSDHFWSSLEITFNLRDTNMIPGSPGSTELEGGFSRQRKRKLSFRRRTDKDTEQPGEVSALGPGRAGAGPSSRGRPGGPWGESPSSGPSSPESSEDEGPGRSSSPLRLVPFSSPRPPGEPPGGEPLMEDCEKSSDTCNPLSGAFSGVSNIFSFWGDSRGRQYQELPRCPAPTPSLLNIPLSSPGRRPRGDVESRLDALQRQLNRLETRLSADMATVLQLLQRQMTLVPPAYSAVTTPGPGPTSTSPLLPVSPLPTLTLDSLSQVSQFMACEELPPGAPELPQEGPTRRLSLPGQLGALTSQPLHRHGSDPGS
row,SMILES,"hERG current change (%, negative = inhibition) at 10uM [%]"
1,CCOc1cc(C(=O)Nc2ccc(C)cc2C)ccc1OCC(=O)N1CCCCC1,-6.48
2,Cc1cccc(NC(=O)C2CCN(S(=O)(=O)c3ccc4c(c3)OCCO4)CC2)n1,-42.4
3,Cc1ccc(CNC(=O)CN2C(=O)NC(C)(c3cccc(Br)c3)C2=O)cc1 (stereo not drawn),3.24
4,CCOc1ccccc1C(=O)NCC(=O)NCCc1ccc(S(N)(=O)=O)cc1,21.5
5,O=C(/C=C/c1cccc([N+](=O)[O-])c1)NCCSCc1c(Cl)cccc1Cl,-11.9
6,COc1ccccc1C(=O)NCCC(=O)NCC(c1ccco1)N1CCCC1 (stereo not drawn),13.7
7,COc1cc([N+](=O)[O-])ccc1NC(=O)Cc1ccc(F)cc1,0.277
8,COc1ccc(NS(=O)(=O)c2ccc(O)c(C(=O)OCC(=O)NC(C)C3CC4CCC3C4)c2)cc1 (stereo not drawn),5.43
9,O=S(=O)(c1cccc(Cl)c1)N1CCCC1,6.2
10,O=S(=O)(Nc1nc2ccccc2nc1Nc1ccc2c(c1)OCCO2)c1cccs1,0.546
11,CC(C)c1nc(SCC(=O)Nc2nccs2)c2ccccc2n1,13.7
12,CCC(C)/C(C)=N/NC(=O)C1COc2ccccc2O1 (stereo not drawn),2.58
13,COCCNC(=O)c1cc2oc3ccccc3c2n1C,4.53
14,CCn1c2nc(SCCN3CCOCC3)nnc2c2cc(C)cc(C)c21,-95.3
15,COc1ccc(NC(=O)C2CSC3c4ccccc4C(=O)N23)cc1 (stereo not drawn),-6.44
16,O=C(Nc1ccc(S(=O)(=O)N2CCOCC2)cc1)c1ccc([N+](=O)[O-])s1,5.57
17,O=c1[nH]c(=O)n(Cc2ccc(F)cc2)c(O)c1C=NCC1CCCO1 (stereo not drawn),-13
18,CCOC(=O)N1CCN(C(=O)CC(C)S(=O)(=O)c2cc3c(cc2C)NC(=O)CO3)CC1 (stereo not drawn),-34.7
19,O=C(Cc1ccc(F)cc1)Nc1nc(-c2ccc(F)c(F)c2)cs1,18
20,COc1cc(NC(=O)COC(=O)CNC(=O)c2ccc(C)s2)cc(OC)c1,4.76
21,COc1ccc(NC(=O)NCCc2c[nH]c3ccccc23)c(OC)c1,-5.03
22,COc1ccc(CSC2=CS(=O)(=O)c3ccccc3N2)cc1,1.85
23,Nc1nnc(SCC(=O)OCC(=O)NC2CCCCC2)s1,28

row,SMILES,"hERG current change (%, negative = inhibition) at 10uM [%]"
1,O=C1OC(c2ccc([N+](=O)[O-])cc2)=N/C1=C/N1CC2CC(C1)c1cccc(=O)n1C2 (stereo not drawn),-55.1
2,CN1C(=O)c2ccccc2Sc2ccc(NC(=O)N3CCOCC3)cc21,-7.88
3,COc1cccc(N2CCN(C(=O)c3ccc(CS(=O)c4ccc(C)cc4)o3)CC2)c1 (stereo not drawn),-18.5
4,CN(C)C(=O)/C(=C/c1cn(-c2ccccc2)nc1-c1cccc([N+](=O)[O-])c1)NC(=O)c1ccccc1,-29.1
5,COc1cc(OC)nc(Oc2cccc(Cl)c2C)n1,9.05
6,COc1ccc(C)cc1NC(=S)N1CCN(c2ccccn2)CC1,-2.19
7,COc1ccc(NC(=O)CSc2nnc(Cc3ccccc3)o2)c(OC)c1,3.61
8,Cc1ccc2c(c1)C(=O)c1c(C(=O)O)cccc1-2,-19.9
9,BrCC1C[n+]2c(SCc3ccccc3)nc3sc4c(c3c2O1)CCCC4.[Br-] (stereo not drawn),-4.88
10,Fc1cccc(C2NN=C(c3ccccc3)S2)c1 (stereo not drawn),9.74
11,Cl.O=C1C2CCN(CC2)C1Cc1ccc(OCc2ccccc2)cc1 (stereo not drawn),-1.16
12,O=C(CN1C(=O)c2ccccc2C1=O)NCC(=O)OCC(=O)c1ccc(Cl)cc1,16.2
13,CN(C)S(=O)(=O)c1cccc(N2C(=O)CC3(CCCCC3)CC2=O)c1,22.2
14,CCOC(=O)c1c(C)[nH]c(C(=O)COC(=O)/C=C/c2ccc3c(c2)OCO3)c1C,-21.5
15,CSc1nccc(NC(=O)c2cccc(Br)c2)n1,-9.46
16,O=C(C(=O)c1ccc(O)cc1)c1ccccc1,14.4
17,O=C(CCS(=O)(=O)c1ccccc1)Nc1nc2ccc(F)cc2s1,-20.3
18,COC(=O)c1ccc(S(=O)(=O)NNC(=O)c2ccc(S(=O)(=O)N3CCCCC3)cc2)cc1,0.496
19,Cc1ccccc1OS(=O)(=O)c1cn(C)c(=O)n(C)c1=O,11.4
20,CN(c1cccc(NC(=O)Cc2ccccc2)c1)S(C)(=O)=O,7.55
21,C=CCSc1ncc(-c2ccccc2)cn1,5.11
22,CCOC(=O)C(CSCC(=O)c1ccc(Br)cc1)NC(=O)OC(C)(C)C (stereo not drawn),-14.6
